Screen size: about 52,000 compounds; about 4,300 (8.3%) were called active. Cut-off read from the data, not from the text of the source: active = survival mostly below about 52% (no sharp cut-off); inactive = mostly above about 56%. The list shows a part of the results.
tested on: DeltatarO mutant; assay: growth inhibition of S. aureus wild type versus tarO mutant, primary screen, teichoic acid synthesis inhibitors, RN4220, OD600 (AID 463173); details: OD600, 18 h, hits give low values, screened at 18.75 µg/mL (by protocol)

| Structure (SMILES) | survival |
| --- | --- |
| CC1CCN(S(=O)(=O)c2ccc3c(c2)CCN3C(=O)Nc2ccc(Br)cc2)CC1 | inactive: 69% |
| Cc1c(C(=O)Nc2ccc(C(C)C)cc2)sc2nc[nH]c(=O)c12 | inactive: 77% |
| O=C1c2cccc3c(N4CCNCC4)ccc(c23)C(=O)N1c1ccc(Cl)cc1 | inactive: 95% |
| CC1CCN(S(=O)(=O)c2ccc3c(c2)N(CC(=O)NC(C)C)C(=O)CO3)CC1 | inactive: 76% |
| Cc1ccc(-c2nnc(Nc3ccc(Cl)c(Cl)c3)c3ccccc23)cc1S(=O)(=O)NCCO | inactive: 79% |
| COc1cccc(CNC(=O)CSc2ncc(S(=O)(=O)c3ccc(Br)cc3)c(=O)[nH]2)c1 | inactive: 72% |
| COc1ccc(CCNC(=O)c2ccc(CS(=O)(=O)Cc3cccc(C)c3)o2)cc1OC | inactive: 80% |
| CCN1CCN(C(c2ccc(F)cc2)c2c(O)cc(C)n(CCOC)c2=O)CC1 (stereo not given) | inactive: 79% |
| CN(C)c1ccc(C(=O)NC2CCSC2=O)cc1 (stereo not given) | inactive: 66% |
| CCc1cccc2c(-c3ccc(F)cc3)nc(SCC(=O)Nc3ccccc3)nc12 | inactive: 93% |
| CC1(C)CC(NC(=O)Cc2ccc(Cl)cc2)CC(C)(C)N1 | inactive: 83% |
| Cc1nonc1OCCn1nnc(N)n1 | inactive: 95% |
| COc1ccc(C(=O)Nc2ccc(-c3cc4ccccc4oc3=O)c(C)c2)cc1OC | inactive: 69% |
| CC(C)CNC(=O)C1CCCN1C(=O)Nc1ccccc1 (stereo not given) | inactive: 106% |
| CC(C)CCNC(=O)C1CCN(C(=O)N2CCOc3ccc(Cl)cc32)CC1 | inactive: 52% |
| CCOC(=O)N1CCN(c2cc3cc(OC)ccc3oc2=O)CC1 | inactive: 67% |
| O=C(C1CCC(Cn2c(=O)c3sccc3n(Cc3cccc(F)c3)c2=O)CC1)N1CCCCC1 (stereo not given) | inactive: 92% |
| CC(=O)NC(C)C1COc2ccccc2O1 (stereo not given) | inactive: 81% |
| O=C(NCCc1ccccc1)C(=O)NCC(c1cccnc1)N1CCN(c2ccccc2F)CC1 (stereo not given) | inactive: 75% |
| COc1ccccc1Nc1nn2c(=O)c3ccc(C(=O)NCc4ccc(F)cc4)cc3nc2s1 | inactive: 78% |
| O=C(NC1CCCCCC1)c1ccc2c(c1)sc1nc(-c3ccccc3)cn12 | inactive: 55% |
| COc1cc(C2CC(=O)N(c3ccccc3)C3=C2C(=O)OC3)cc(OC)c1OC (stereo not given) | inactive: 72% |
| CCOC(=O)c1c(C)[nH]c(C)c1S(=O)(=O)N1CCCC(C(=O)Nc2ccc(F)cc2F)C1 (stereo not given) | inactive: 88% |
| CCOc1ccc(NC(=O)CSc2cn(CC(=O)N3CCCCCC3)c3ccccc23)cc1 | inactive: 95% |
| COc1ccc(-c2n[nH]c3c2C(c2ccc(O)cc2)N(c2ccc(Br)cc2)C3=O)cc1 (stereo not given) | active: -3% |
